According to publication PMC4826441:
No constants are given. Whether binding was seen depends on the method and setting. In cells and extracts the contact can be indirect. Some binding calls cover weakened binding; strength is not graded here. For some assays here: Tags and fused reporters may be left off the sequences shown.

Amino acid sequences for entries named in this document (tags omitted).
UniProt P63040: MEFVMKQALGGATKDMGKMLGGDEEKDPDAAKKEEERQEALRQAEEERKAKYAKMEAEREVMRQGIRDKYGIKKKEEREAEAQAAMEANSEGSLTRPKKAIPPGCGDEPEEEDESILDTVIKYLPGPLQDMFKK
UniProt P63044: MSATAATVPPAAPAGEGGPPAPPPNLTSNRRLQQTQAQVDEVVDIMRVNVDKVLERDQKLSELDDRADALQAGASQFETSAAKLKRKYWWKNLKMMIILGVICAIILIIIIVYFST
UniProt P60879: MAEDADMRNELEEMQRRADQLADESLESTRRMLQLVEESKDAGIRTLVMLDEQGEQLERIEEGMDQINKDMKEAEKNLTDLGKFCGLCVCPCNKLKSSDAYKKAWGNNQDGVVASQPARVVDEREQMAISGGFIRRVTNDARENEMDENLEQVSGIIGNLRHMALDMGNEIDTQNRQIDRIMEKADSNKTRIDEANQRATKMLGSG
UniProt P46097: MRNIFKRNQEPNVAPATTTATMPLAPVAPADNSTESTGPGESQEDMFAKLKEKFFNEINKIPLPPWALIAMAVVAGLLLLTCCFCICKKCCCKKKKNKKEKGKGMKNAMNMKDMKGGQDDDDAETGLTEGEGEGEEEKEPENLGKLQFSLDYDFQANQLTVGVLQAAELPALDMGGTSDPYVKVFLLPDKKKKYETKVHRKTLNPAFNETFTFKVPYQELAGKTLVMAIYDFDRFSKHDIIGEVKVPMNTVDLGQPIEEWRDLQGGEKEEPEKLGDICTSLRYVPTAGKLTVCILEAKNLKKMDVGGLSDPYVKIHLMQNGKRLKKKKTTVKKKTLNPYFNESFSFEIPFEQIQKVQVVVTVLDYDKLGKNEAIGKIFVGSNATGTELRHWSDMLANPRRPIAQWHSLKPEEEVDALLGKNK

T1: FLAG-tagged PRRT2 (proline-rich transmembrane protein 2) (UniProt E9PUL5)
T1 sequence: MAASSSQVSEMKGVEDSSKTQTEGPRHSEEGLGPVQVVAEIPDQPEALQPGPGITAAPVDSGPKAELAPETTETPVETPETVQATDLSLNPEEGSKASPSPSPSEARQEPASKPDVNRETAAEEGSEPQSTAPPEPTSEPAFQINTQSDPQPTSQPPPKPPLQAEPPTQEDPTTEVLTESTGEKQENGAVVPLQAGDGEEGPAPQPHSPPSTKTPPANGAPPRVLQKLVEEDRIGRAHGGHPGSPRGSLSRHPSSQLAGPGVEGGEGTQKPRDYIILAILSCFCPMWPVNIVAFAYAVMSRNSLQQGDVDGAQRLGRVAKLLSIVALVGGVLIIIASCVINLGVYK


Legend:
[1] = molecular target: T1, FLAG-tagged PRRT2 (proline-rich transmembrane protein 2); assay: pull-down; FLAG-PRRT2 or FLAG-BAP expressed in HEK293T cells, purified by anti-FLAG M2 affinity gel and incubated with mouse brain synaptosome lysates; pellets analysed by western blotting; only the target purified
[2] = molecular target: FLAG-tagged bacterial alkaline phosphatase [phosphatase: P00634]; assay: as above

binding [1] | binding [2] | Molecule
no binding |  | complexin 1 (from UniProt P63040 1-134)
binds | no binding | VAMP2/synaptobrevin (from UniProt P63044 1-116)

The remaining lines, values behind:

Molecule | binding [1] | binding [2]
synaptosomal-associated protein 25 kDa (from UniProt P60879 1-206) | binds | no binding
synaptotagmin 2 (from UniProt P46097 1-422) | binds | no binding
complexin 2 (protein, UniProt P84086 1-134) MDFVMKQALGGATKDMGKMLGGEEEKDPDAQKKEEERQEALRQQEEERKAKHARMEAEREKVRQQIRDKYGLKKKEEKEAEEKAALEQPCEGSLTRPKKAIPAGCGDEEEEEEESILDTVLKYLPGPLQDMFKK | no binding | 
